About 1,200 (2.5%) of roughly 48,000 compounds were called active. Not shown: some 2% with an inconclusive outcome.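 Rule for the calls: active = activation of at least 60% and not above a set upper limit (about 1 call in 100 departs from these limits); inconclusive = activation of 40% to 60%, or above that upper limit; inactive = activation under 40%.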 The list shows a part of the results.
What follows are compounds tested against Probable G-protein coupled receptor 32 (Homo sapiens) (UniProt O75388) (assay: qHTS for Agonists of Human Resolvin D1 Receptor DRV1). Conditions: CHO-K1 GPR32 beta-arrestin PathHunter luminescence, 90 min; at 76.9 µM; hits give high values; zero percent set by DMSO-only wells.
UniProt O75388, sequence (O75388 whole entry, looked up, the tested form may be a part): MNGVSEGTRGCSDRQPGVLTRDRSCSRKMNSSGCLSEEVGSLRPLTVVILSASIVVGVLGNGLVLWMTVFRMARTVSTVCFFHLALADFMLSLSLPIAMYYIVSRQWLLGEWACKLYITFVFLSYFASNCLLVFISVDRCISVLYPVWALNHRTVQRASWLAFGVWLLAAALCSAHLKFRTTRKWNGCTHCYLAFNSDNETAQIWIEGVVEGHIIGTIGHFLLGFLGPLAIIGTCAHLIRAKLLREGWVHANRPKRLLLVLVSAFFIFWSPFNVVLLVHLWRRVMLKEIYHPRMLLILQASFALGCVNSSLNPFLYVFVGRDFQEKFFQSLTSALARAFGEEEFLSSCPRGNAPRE
Outline: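 GPR32 activation in stably transfected CHO-K1 cells, detected as beta-arrestin recruitment by enzyme-fragment complementation. Compound exposure: 90 min, 37 °C.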
In the case of `CCOc1ccccc1NC(=O)CSc1nccn1Cc1ccc(F)cc1`, the activation is reported as inactive: -21.2%.
`Cc1cccc(CNC(=O)c2cnc3sc(N4CCOCC4)nn3c2=O)c1` was tested, and the activation was inactive: -7.85%.
For `Cc1ccc(-n2c(=O)c3ccc(C(=O)NCc4ccccc4Cl)cc3n(CC(N)=O)c2=O)cc1`, the activation was inactive: 1.17%.
`Cc1ccccc1C(=O)Nc1ccc(C(=O)OCc2cc(=O)n3c4c(sc3n2)CCCC4)cc1` was tested, and the activation was inactive: -15.3%.
For `O=C(O)CCc1ccc(-c2ccc(Cl)cc2)n1-c1cccc(C(F)(F)F)c1`, the activation was inactive: 25.8%.
With `CCn1c(=O)cc(OCC(=O)Nc2ccccc2Cl)c2ccccc21` the activation was inactive: -16.7%.
With `CCOc1ccc(CCNC(=O)c2nn(-c3ccc(OC)cc3)c(=O)c3c2c2ccccc2n3C)cc1OCC` the activation was inactive: -23.6%.
`Cn1c(CN2CCCCC2)nc2cc(NC(=O)c3ccc(Cl)cc3)ccc21` was tested, and the activation was inactive: -17.1%.
For `CCOC(=O)c1cnc(NCc2ccc(Cl)cc2)c2ccccc12`, the activation was inactive: -27.7%.
In the case of `CCN(CC)C(=O)c1ccccc1NC(=O)c1cccc(S(=O)(=O)N2CCC(C)CC2)c1`, the activation is reported as inactive: -2.27%.
In the case of `O=C(NC1CCCCC1)/C(=C/c1ccc(Cl)cc1)NC(=O)c1ccccc1`, the activation is reported as inactive: -12.9%.
For `N#Cc1cc2c(=O)n3ccccc3nc2n(-c2nnc(SCc3ccccc3)s2)c1=O`, the activation was inactive: 23.5%.
With `Cc1ccc(C(=O)CSc2nnc3ccc4ccccc4n23)cc1` the activation was inactive: 4.73%.
For `COc1cccc(CNC(=O)c2ccc(CS(=O)Cc3ccc(Cl)cc3)o2)c1` (stereo not drawn), the activation was inactive: -6.28%.
`CCC(=O)N1c2ccc(S(=O)(=O)N3CCN(c4ccccc4Cl)CC3)cc2CC1C` (stereo not drawn) was tested, and the activation was inactive: -5.51%.
`Cc1cccc(N(C)c2nc3ccc(C)cc3n3nnnc23)c1` was tested, and the activation was inactive: -23.9%.
With `CCOC(=O)C1CCCN(S(=O)(=O)c2cc(-c3cc(C)no3)ccc2C)C1` (stereo not drawn) the activation was inactive: -10.3%.
With `Cc1ccc(NC(CNS(=O)(=O)c2ccc(Cl)cc2)c2ccccc2)cc1` (stereo not drawn) the activation was inactive: 45.3%.
`O=C1NC(=O)/C(=C/c2ccc(-c3ccc(F)cc3O)o2)S1` was tested, and the activation was active: 62.4%.
For `Cc1ccc(CNC(=O)C2CCN(c3ncnc4c3nc3n4CCCCC3)CC2)cc1`, the activation was inactive: -11.4%.
For `COC(=O)c1cc(S(N)(=O)=O)ccc1OC`, the activation was inactive: -3.21%.
With `COc1cc(NC(=O)COCc2cc(-c3ccc4c(c3)OCO4)on2)cc(OC)c1` the activation was inactive: -11.8%.
In the case of `CN(C)c1ccc(/C=C(\C#N)c2nc(-c3ccc(Cl)c(Cl)c3)cs2)cc1`, the activation is reported as inactive: 3.38%.
`Cc1ccccc1-c1noc(-c2ccc(N3CCOCC3)c([N+](=O)[O-])c2)n1` was tested, and the activation was inactive: -9.09%.
In the case of `Cn1c2ccccc2c2cnn(CC(=O)Nc3ccccc3C(F)(F)F)c(=O)c21`, the activation is reported as inactive: 2.97%.
For `Cc1ccc(-n2c(=O)c3c(cnn3C)n(Cc3ccccc3F)c2=O)cc1`, the activation was inactive: -2%.
`COc1cc(NC(=O)c2oc3c(c2C)-c2nn(Cc4cccc(Cl)c4)cc2CC3)cc(OC)c1` was tested, and the activation was inactive: -0.0585%.
In the case of `CCOc1ccc(N(C(C)C(=O)Nc2cc(Cl)ccc2OC)S(C)(=O)=O)cc1` (stereo not drawn), the activation is reported as inactive: -13.8%.
For `CCN(CC)C(=O)c1sc2c(c1C)c(=O)n(-c1ccc(OC)cc1OC)c(=O)n2CC(=O)c1ccc(Cl)cc1`, the activation was inactive: -9.61%.
For `CCn1cc(S(=O)(=O)c2ccccc2)c(=O)c2cc(F)c(N3CCN(c4ccccc4)CC3)cc21`, the activation was inactive: -12.3%.
With `N#Cc1ccc(C(=O)Nc2ccc3c(c2)N(C2CCCC2)C(=O)c2ccccc2S3)cc1` the activation was inactive: -4.98%.
`CCc1nn(CC(=O)Nc2ccc(N(CC)CC)cc2C)c(=O)c2cc3sccc3n12` was tested, and the activation was inactive: -15.9%.
For `CC(C)Sc1ncc(Cl)c(C(=O)N(Cc2ccc(N(C)C)cc2)C2CCS(=O)(=O)C2)n1` (stereo not drawn), the activation was inactive: -25.4%.
`Cc1ccc(Cn2c(CN3CCC(C(=O)NCCc4ccccc4)CC3)cc3ccccc32)cc1` was tested, and the activation was inactive: -28%.
For `CCn1ccc2c(OCC(=O)NCc3ccc(F)cc3)cccc2c1=O`, the activation was inactive: 23.1%.
`O=C(NCCc1nc2ccccc2n1Cc1ccc(Cl)cc1Cl)c1ccco1` was tested, and the activation was inactive: -25.7%.
In the case of `Cc1nn(-c2ccc(N3CCCC3)nn2)c(C)c1CCC(=O)Nc1ccc(F)c(Cl)c1`, the activation is reported as inactive: -6.68%.
In the case of `Cc1ccc(-c2noc(-c3ccccc3NC(=O)C3CC(=O)N(c4ccccc4C)C3)n2)cc1` (stereo not drawn), the activation is reported as inactive: -9.69%.
For `CC(C)Cn1c(=O)c2ccccc2n2c(CCC(=O)NC(C)c3ccccc3)nnc12` (stereo not drawn), the activation was inactive: 5.86%.
`Cc1cc(C)c2nc(N(Cc3cccnc3)C(=O)c3cccs3)sc2c1` was tested, and the activation was inactive: -4.17%.
In the case of `CCOc1ccc(C2C(C(=O)Nc3ccccc3)=C(C)Nc3nc(SCc4cc(C)ccc4C)nn32)cc1` (stereo not drawn), the activation is reported as inactive: -5.31%.
With `COC(=O)c1c(Cl)c(Cl)c(C(=O)OC)c(Cl)c1Cl` the activation was inactive: -18.1%.
In the case of `Cc1cc(C)c(S(=O)(=O)Nc2ccc(-c3ccc(N4CCCCCC4)nn3)cc2)c(C)c1`, the activation is reported as inactive: -18.1%.
With `CCCc1cc(C(=O)Nc2c(C)nn(Cc3c(Cl)cccc3Cl)c2C)no1` the activation was inactive: -0.626%.
With `Cn1cnnc1SCC(=O)Nc1ccc(C#N)cc1` the activation was inactive: 5.72%.
`COC(=O)c1ccc(OCC2c3cc(OC)c(OC)cc3CCN2C(=O)Cc2ccccc2)cc1` (stereo not drawn) was tested, and the activation was inactive: -12.1%.
`CCc1ccccc1NC(=O)C1(C)Cc2ccccc2C(=O)O1` (stereo not drawn) was tested, and the activation was inactive: -2.31%.
With `COc1ccc(-c2cn3nc(N4CCCC(C(=O)Nc5cc(C)cc(C)c5)C4)sc3n2)cc1` (stereo not drawn) the activation was inactive: -10.1%.
For `COc1ccccc1N1CCN(c2ncnc3c2cnn3-c2cccc(Cl)c2)CC1`, the activation was inactive: 0.474%.
With `CC(C)(C)C1CCc2c(sc(NC(=O)c3ccc(Cl)cc3)c2C(=O)NCc2ccco2)C1` (stereo not drawn) the activation was inactive: 4.24%.
In the case of `CCN(Cc1ccccc1)S(=O)(=O)c1cc(C(=O)Nc2cc(Cl)cc(Cl)c2)ccc1F`, the activation is reported as inactive: -6.58%.
In the case of `COc1ccc(-c2[nH]c(-c3cccc(OC)c3)nc2SCC(=O)NC2CCCC2)cc1`, the activation is reported as inactive: -28.9%.
In the case of `O=S(=O)(NCC(c1cccs1)S(=O)(=O)c1ccccc1)c1ccc(F)c(C(F)(F)F)c1` (stereo not drawn), the activation is reported as inactive: -14.7%.
With `C#C[C@]1(OC(C)=O)CC[C@H]2[C@@H]3CCC4=C[C@@H](OC(C)=O)CC[C@@H]4[C@H]3CC[C@@]21C` the activation was inactive: 16.7%.
`CCN(CC)S(=O)(=O)c1ccc(C(=O)N2CC(=O)Nc3ccc(F)cc3C2c2ccccc2)cc1` (stereo not drawn) was tested, and the activation was inactive: -18.4%.
For `O=C(C1CCN(S(=O)(=O)c2ccc(Br)s2)CC1)N1CCN(c2ccccc2)CC1`, the activation was inactive: 34.7%.
In the case of `CC(C)(C)OC(=O)N1CCC(c2c(C(=O)NCCc3ccccc3)cnn2-c2ccc(F)cc2)CC1`, the activation is reported as inactive: -24.5%.
For `COc1cc(NC(=O)c2c(C)oc3c2C2=NCCN2C=N3)cc(OC)c1OC`, the activation was inactive: -37.9%.
With `CC(=O)N1c2ccc(S(=O)(=O)NCC3CCC(C(=O)Nc4cc(C)ccc4C)CC3)cc2CC1C` (stereo not drawn) the activation was inactive: 27.7%.
In the case of `COc1ccc(CCN2C(=O)NC(NS(=O)(=O)c3ccc(NC(C)=O)cc3)(C(F)(F)F)C2=O)cc1OC` (stereo not drawn), the activation is reported as inactive: 0.3%.
`COc1ccc(OCC(=O)NCc2ccc3c(c2)CCN3C(=O)c2ccc(F)cc2)cc1` was tested, and the activation was inactive: -37.4%.
With `CCc1ccc(-c2nn(CC(=O)NCc3ccccc3)c3c2cnc2ccc(F)cc23)cc1` the activation was inactive: 6.56%.
`O=C(NCc1ccc(F)cc1)c1cc(-c2ccc(Cl)cc2)n[nH]1` was tested, and the activation was inactive: 16.3%.
With `O=C(Nc1cccnc1)c1cc(-c2cccc(Cl)c2)on1` the activation was inactive: 3.84%.
With `O=C(O)c1cccc(Nc2ncnc3scc(-c4ccccc4)c23)c1` the activation was inactive: 19.3%.
`CCc1ccc(S(=O)(=O)c2nnn3c2nc(Nc2ccc(F)cc2)c2cc(Cl)ccc23)cc1` was tested, and the activation was inactive: -10.4%.
With `CCC(C)NC(=O)CCSc1nc(-c2ccc(OC)cc2)cc(C(F)(F)F)n1` (stereo not drawn) the activation was inactive: -27%.
For `COc1ccc(NC(=O)c2cc(CN3CCCC3)on2)cc1Cl`, the activation was inactive: 10.1%.
`Cc1ccc(C(=O)Nc2nnc(S(=O)(=O)N3CCc4ccccc43)s2)cc1` was tested, and the activation was inactive: 6%.
In the case of `Cc1ccccc1C(=O)Oc1c(Sc2ccccc2)c(C)nn1C(C)(C)C`, the activation is reported as inactive: -13.8%.
With `COc1ccc(CC(=O)NCc2ccc3c(c2)CCN3C(=O)c2ccc(Cl)cc2)cc1` the activation was inactive: -13.5%.
For `CCc1ccc2oc(-c3cc(NC(=O)c4cccnc4)cc(C)c3O)nc2c1`, the activation was inactive: 15.5%.
For `CCOc1ccc(NC(=O)c2cnc(Nc3ccccc3OC)c3ccccc23)cc1`, the activation was inactive: -4.3%.
For `COc1ccc(CCNC(=O)Cn2ncc3c(=O)oc4ccccc4c32)c(OC)c1`, the activation was inactive: -2.24%.
For `CCOc1ccc(NC(=O)c2oc3ccccc3c2NC(=O)c2cc(C)cc(C)c2)cc1`, the activation was inactive: 5.98%.
In the case of `CCC(=O)N1CCc2cc(Br)cc(S(=O)(=O)N3CCCC(C(=O)Nc4cccc(F)c4)C3)c21` (stereo not drawn), the activation is reported as inactive: 17.4%.
With `CCOC(=O)CSc1nc2sc3c(c2c(=O)n1-c1ccccc1)CCC(C(C)(C)C)C3` (stereo not drawn) the activation was inactive: 34.2%.
`Cc1cccc(Cc2c(C)nc3nc(SCC(=O)NCc4ccccc4)nn3c2C)c1` was tested, and the activation was inactive: 36.2%.
For `CC(C)Oc1ccc(CNC(=O)c2cccc(NC(=O)N3CCSc4ncccc43)c2)cc1`, the activation was inactive: 15.2%.
`CCOc1ccc(CCNC(=O)CCSCc2ccc(Cl)cc2)cc1OCC` was tested, and the activation was inactive: -20.4%.
With `COc1cccc(CNC(=O)CN(c2ccc(C(C)C)cc2)S(=O)(=O)c2c(C)noc2C)c1` the activation was inactive: 21.5%.
For `O=C(Nc1cccc(Br)c1)N1CCC(CN2CCCCCC2)CC1`, the activation was inactive: -14.7%.
In the case of `Cn1c(=O)oc2cc(S(=O)(=O)N3CCC(C(=O)Nc4ccc(F)c(Cl)c4)CC3)ccc21`, the activation is reported as inactive: 33.8%.
Note: 0% is about no effect.
